The structures appear in SMILES notation.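 Interpolation was linear, between the two tested concentrations surrounding the appropriate level; five concentrations were tested over 48 hours in 96-well plates. The concentration for 50% growth inhibition is given as GI50. TGI: total growth inhibition.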

This assay concerns NCI-H322M lung. Briefly: inhibition of tumour cell growth, NCI panel, 48 h.
Consider `COc1ccc2nc(Cl)c(-c3cc(-c4ccccc4)nc(=O)[nH]3)cc2c1`, for which the GI50 was 17 µM and the TGI turned out to be 55.2 µM.

As to `CCn1c(SCC(=O)Nc2ccc(-c3nc4ccccc4[nH]3)cc2)nc2ccccc2c1=O`, the GI50 is 1.7 µM and the TGI turned out to be 3.65 µM.

Consider `O=C1Nc2cc(-c3ccc(NS(=O)(=O)c4ccc([N+](=O)[O-])cc4)cc3)ccc2/C1=C/c1ccc[nH]1`, for which the GI50 is 20.5 µM and the TGI is over 100 µM.

For the molecule `O=C(Nc1ccc(OCC(=O)c2ccccc2)cc1)Nc1ccc(Cl)c(C(F)(F)F)c1`, the GI50 is 3.86 µM and the TGI is over 100 µM.

These data come from PubChem BioAssay (NCI).
